# Results: PubChem BioAssay AID588342 (National Center for Advancing Translational Sciences (NCATS), 2011)
# Hit rate of the full screen: of about 360,000 compounds, about 25,000 (6.9%) were called active. This list was built around the results that the source calls inconclusive (neither active nor inactive); the mix of calls is not that of the screen. The call rests on the fitted dose curve; in most records, active means well fitted inhibition curve with a large enough effect; inconclusive means small, poorly fitted or top-dose-only effect; inactive means flat fitted curve, though single readings scatter. Potencies of inconclusive entries are doubtful fits and often do not repeat.
# Target: Luciferin 4-monooxygenase (Photinus pyralis) (UniProt P08659)
# Assay: qHTS profiling assay for firefly luciferase inhibitor/activator using purifed enzyme and Km concentrations of substrates (counterscreen for miR-21 project); further: nearly all actives have a fitted effect of over 55% in size
# Details: purified FLuc, luminescence inhibition; series mostly up to 57.5 µM
# In short: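 Purified P. pyralis luciferase, 10 nM final, with Km-level 10 uM D-luciferin and 10 uM ATP in 50 mM Tris acetate pH 7.5, 10 mM Mg acetate, 0.01% Tween-20, 0.05% BSA; 6-point qHTS titration about 60 µM downward; luminescence read.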
# Potency means the concentration at half of the fitted maximal effect; tags describe the fitted curve by direction and shape.
# UniProt P08659, sequence (P08659 whole entry, looked up): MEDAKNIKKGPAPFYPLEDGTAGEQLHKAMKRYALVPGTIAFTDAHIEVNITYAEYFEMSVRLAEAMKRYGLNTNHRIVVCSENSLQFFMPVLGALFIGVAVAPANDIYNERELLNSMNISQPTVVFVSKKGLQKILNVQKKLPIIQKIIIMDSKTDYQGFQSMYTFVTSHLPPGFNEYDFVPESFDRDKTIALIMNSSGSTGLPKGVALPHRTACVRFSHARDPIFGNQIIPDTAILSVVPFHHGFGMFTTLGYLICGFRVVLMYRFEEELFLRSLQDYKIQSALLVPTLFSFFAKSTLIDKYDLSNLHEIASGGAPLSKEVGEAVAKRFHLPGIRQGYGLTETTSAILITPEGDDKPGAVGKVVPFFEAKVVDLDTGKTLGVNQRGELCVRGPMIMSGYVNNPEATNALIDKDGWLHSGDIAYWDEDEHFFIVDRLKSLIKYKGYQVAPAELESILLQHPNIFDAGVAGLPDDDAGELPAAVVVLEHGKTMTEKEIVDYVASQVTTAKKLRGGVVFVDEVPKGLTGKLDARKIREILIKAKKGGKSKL
row,Structure (SMILES),Potency
1,Cc1sc2ncnc(Sc3ccccc3C(=O)O)c2c1C,"inconclusive: 30.1 µM [inhibitor, partial curve, poor fit]"
2,Cc1ccnc(NC(=O)CNC(=O)c2ccccc2)c1,"inconclusive: 30.1 µM [inhibitor, single point]"
3,C/C(=N\Nc1cccc2cccnc12)c1ccc(N)cc1,active: 4.26 µM
4,Cc1ccc(OCC(=O)NNc2c3ccccc3nc3ccccc23)cc1,inactive
5,COc1ccc(C(CNC(=O)COc2cc(C)c(Cl)c(C)c2)N2CCCCC2)cc1 (stereo not given),inactive
6,CCOc1cccc(C(=O)N/N=C/c2ccoc2)c1,active: 13.5 µM
7,COc1ccc2nc(N/C(N)=N/C(=S)Nc3ccccc3)nc(C)c2c1,"inconclusive: 26.9 µM [inhibitor, single point]"
8,O=C(O)COc1ccccc1/C=N/NC(=O)c1cccc(S(=O)(=O)N2CCOCC2)c1,"inconclusive: 37.9 µM [inhibitor, single point]"
9,CC(=O)N1CCc2c(sc(NC(=O)c3ccc([N+](=O)[O-])o3)c2C#N)C1,"inconclusive: 16.9 µM [inhibitor, partial curve, poor fit]"
10,COc1ccccc1NS(=O)(=O)c1ccc(C)c(NS(=O)(=O)c2cc(C(=O)O)cc(C)c2C)c1,inactive
11,COc1ccc(NC(=O)NCCC2=CCCCC2)cc1,"inconclusive: 0.675 µM [inhibitor, full curve, poor fit]"
12,CC(C)[C@H](Nc1nc(-c2ccccc2)nc2c1oc1ccccc12)C(=O)O,"inconclusive: 23.9 µM [inhibitor, partial curve, poor fit]"
13,Cc1ccc(Cn2cc(S(=O)(=O)c3ccccc3)c(=O)c3cc(F)c(N4CCOCC4)cc32)cc1,inactive
14,Cc1nc(SCC(=O)Nc2cccc(C(=O)O)c2)n[nH]1,"inconclusive: 19 µM [inhibitor, partial curve]"
15,Cn1ccc2cc(S(=O)(=O)N3CCN(C(=O)Nc4cccc(F)c4)CC3)ccc21,inactive
16,COc1ccc(C(=O)c2ccsc2N)cc1,active: 16.9 µM
17,NC(=O)c1ccc(NC(=O)COC(=O)/C=C/c2ccc3c(c2)OCO3)cc1,active: 12 µM
18,CC(=O)N1CCc2cc(CNS(=O)(=O)c3cccs3)ccc21,"inconclusive: 37.9 µM [inhibitor, partial curve, poor fit]"
19,COc1ccc(-c2cn3nc(N4CCCC(C(=O)Nc5ccccc5F)C4)sc3n2)cc1 (stereo not given),"inconclusive: 9.53 µM [inhibitor, partial curve]"
20,COc1ccc(NC(=O)C(C)SCc2ccccc2)cc1 (stereo not given),"inconclusive: 30.1 µM [inhibitor, partial curve, poor fit]"
21,Cc1nn(CC(=O)Nc2ccc(C(C)C)cc2)c(=O)c2c(C)n(-c3ccc(Cl)cc3)nc12,inactive
22,CCOc1ccccc1N(C)C(=O)c1sc2nc3n(c(=O)c2c1C)CCCC3,inactive
23,Cc1ccc(C(=O)COC(=O)c2cccc([N+](=O)[O-])c2)s1,active: 4.78 µM

row,Structure (SMILES),Potency
1,Cc1ccc2nc(SCC(=O)Nc3nnc(SCC(N)=O)s3)[nH]c2c1,active: 16.9 µM
2,NC(=O)CSc1nnc(NC(=O)c2cccc(S(=O)(=O)N3CCCCC3)c2)s1,"inconclusive: 12 µM [inhibitor, partial curve]"
3,Cc1[nH]n(-c2cccc(Cl)c2)c(=O)c1/C=N/n1c(C)nc2ccccc2c1=O,"inconclusive: 15.1 µM [inhibitor, partial curve]"
4,O=C(O)c1ccc(N2C(=O)/C(=C/C=C/c3ccccc3)SC2=S)cc1,"inconclusive: 37.9 µM [inhibitor, single point]"
5,Cc1ccc(OCc2nnc(N)s2)cc1C,"inconclusive: 21.3 µM [inhibitor, partial curve, poor fit]"
6,Cc1ccc(/C=C/C(=O)N2CCc3ccccc32)o1,active: 1.9 µM
7,COc1cccc(NC(=O)CN(C)C(=O)c2cn(-c3ccccc3)nc2-c2cccnc2)c1,"inconclusive: 30.1 µM [inhibitor, single point]"
8,CC(=O)Nc1ccc(NC(=O)Nc2cccc(Cl)c2)cc1,"inconclusive: 37.9 µM [inhibitor, partial curve, poor fit]"
9,COc1ccc(-c2cc([C@H]3[C@H]4C=CC[C@@H](C)[C@@H]4C(=O)N3Cc3ccccc3)ccc2F)cc1OC,"inconclusive: 23.9 µM [inhibitor, partial curve]"
10,O=C(CN1CCOCC1)Nc1nc(-c2ccccc2)cs1,inactive
11,O=C(CSc1n[nH]c(=O)n1C1CC1)c1ccc(F)cc1,"inconclusive: 37.9 µM [inhibitor, partial curve, poor fit]"
12,CCOC(=O)c1sc(NC(=O)Nc2cccc(Cl)c2)cc1C,active: 1.69 µM
13,Cc1ccc(C(=O)COC(=O)CN2C(=O)C3C4CC(C(Br)C4Br)C3C2=O)cc1 (stereo not given),"inconclusive: 26.9 µM [inhibitor, partial curve, poor fit]"
14,COc1cccc(C(=O)Nc2ccc(F)cc2F)c1,"inconclusive: 23.9 µM [inhibitor, single point]"
15,COc1ccccc1-c1ccc(/C=N/O)o1,"inconclusive: 37.9 µM [inhibitor, single point]"
16,COC(=O)c1cc(S(=O)(=O)NCC2CCN(Cc3cccc(Cl)c3)CC2)c[nH]1,inactive
17,Cc1nn(-c2ccccc2)c2c1N(CCCC(=O)NCc1ccc(OC(C)C)cc1)C(=O)CS2,"inconclusive: 21.3 µM [inhibitor, partial curve, poor fit]"
18,COC(=O)Cn1c(=NC(=O)c2cccc(OC)c2)sc2cc(OC)ccc21,active: 3.01 µM
19,FC(F)(F)c1ccc(-c2n[nH]c(=S)o2)nc1,"inconclusive: 37.9 µM [inhibitor, partial curve, poor fit]"
20,O=C(NC(=S)Nc1ccccc1)c1cncc(C#Cc2ccccc2)c1,inactive
21,O=C(N/N=C/c1cccc([N+](=O)[O-])c1O)C(O)(c1ccccc1)c1ccccc1,inactive
22,Nc1c2c(nc3ccc(Br)cc13)N(c1ccccc1)CC2,"inconclusive: 21.3 µM [inhibitor, single point]"
